Source: patent publication US20140050743A1, “BINDING PROTEINS TO INHIBITORS OF COAGULATION FACTORS” (BAYER INTELLECTUAL PROPERTY GMBH, priority 2011, published 2014)
“And” between values parts separate entries of the source, which are not always exact repeats. Identical values can stand only once. “Also recorded” adds a separate entry of the source. Like-named read-outs stand apart in the source and are kept apart here.

Assays:
[1] = Affinity by surface plasmon resonance (Biacore), analyte edoxaban; assay type: binding; conditions: Table 7; immobilized Fabs, SPR (Biacore)
[2] = Affinity by surface plasmon resonance (Biacore), analyte apixaban; assay type: binding; conditions: Table 7; immobilized Fabs, SPR (Biacore)
[3] = tested on: apixaban; experiment: Thrombin generation assay in human platelet poor plasma in the presence of apixaban; assay type: biochemical; conditions: 3 μM apixaban, Fab 1.43 μM, alone or with 0.1 μM rivaroxaban
[4] = KD from unbound rivaroxaban after ultrafiltration (Rosenthal-Scatchard plot) in Dulbeccos PBS; assay type: binding; conditions: read-out: KD value towards rivaroxaban from the slope of the Rosenthal-Scatchard plot, 0.5 μM Fab, rivaroxaban 0.214 to 0.583 μM, DPBS
[5] = tested on: bleedings prolonged by rivaroxaban; assay type: in vivo, rat
[6] = tested on: rivaroxaban (prothrombin time); experiment: Reversal of rivaroxaban's effect on prothrombin time (PT) in vitro, rat plasma; assay type: biochemical
Procedure: (§1) Citrated blood (0.11 M Na-citrate/blood, 1:9 v/v) was obtained from human donors by venipuncture or from anesthetized Wistar rats (Charles River) by aortic cannulation and centrifuged at 4000 g for 15 minutes for separation of platelet-poor plasma. […] Antidote was added to the Plasma-rivaroxaban mixture and incubated for another 10 minutes at room temperature. The PT assay was run using Recombiplastin (Instrumentation Laboratory) as tissue factor source on an AMAX 200 automated coagulometer (Trinity Biotech) according to manufacturer's instructions. The composition of the final assay volume is ⅓ plasma and ⅔ PT reagent. […] Data are given as means±sem from 5 experiments and represent final assay concentrations (Table 8 and FIGS. 7 and 8).

[7] = tested on: thrombin generation; experiment: Thrombin generation assay in human platelet poor plasma in the absence of any FXa inhibitor; assay type: biochemical; conditions: no FXa inhibitor; Fab 0, 0.09, 0.72 μM
[8] = Affinity by surface plasmon resonance (Biacore), analyte SATI; assay type: binding; conditions: Table 7; immobilized Fabs, SPR (Biacore)
[9] = tested on: rivaroxaban (prothrombin time); experiment: Prothrombin time (PT) ex vivo (rat PD/PK); assay type: in vivo; conditions: rivaroxaban […] oral; Fab 85 mg/kg infusion from 1.5 to 2.5 h
[10] = tested on: rivaroxaban (prothrombin time); experiment: Reversal of rivaroxaban's effect on prothrombin time (PT) in vitro, human plasma; assay type: biochemical
Procedure: as §1

[11] = Affinity by surface plasmon resonance (Biacore), analyte razaxaban; assay type: binding; conditions: Table 7; immobilized Fabs, SPR (Biacore)
[12] = Affinity by surface plasmon resonance (Biacore), immobilized Fab, analyte rivaroxaban; assay type: binding; conditions: immobilized Fabs, SPR (Biacore)
Description: “Binding affinity” refers to the strength of the sum total of noncovalent interactions between a single binding site of a molecule and its binding partner. Unless indicated otherwise, as used herein, “binding affinity” refers to intrinsic binding affinity which reflects a 1:1 interaction between members of a binding pair (e.g. an antibody and an antigen). The dissociation constant “KD” is commonly used to describe the affinity between a molecule (such as an antibody) and its binding partner (such as an antigen) i.e. how tightly a ligand binds to a particular protein. Ligand-protein affinities are influenced by non-covalent intermolecular interactions between the two molecules Affinity can be measured by common methods known in the art, including those described herein. In one embodiment, the “KD” or “KD value” according to this invention is measured by using surface plasmon resonance assays using a Biacore T100 instrument (GE Healthcare Biacore, Inc.) according to Example 5. The dissociation equilibrium constant (KD) was calculated based on the ratio of association (kon) and dissociation rated (koff) constants, obtained by fitting sensograms with a first order 1:1 binding model using Biacore Evaluation Software. Other suitable devices are BIACORE(R)-2000, a BIACORE (R)-3000 (BIAcore, Inc., Piscataway, N.J.), or ProteOn XPR36 instrument (Bio-Rad Laboratories, Inc.).
Binding affinities of Fab-fragments were determined by surface plasmon resonance analysis on a Biacore T100 instrument (GE Healthcare Biacore, Inc.). Fab fragments were diluted to a final concentration of 10 μg/ml in 10 mM sodium acetate, pH 4.5, and immobilized on a CM5 chip (GE Healthcare Biacore, Inc.) at levels of 3000-5000RU by amine-coupling chemistry for flow cells 2, 3 and 4, respectively. Flow cell 1 was used as a reference. […] Sensograms were generated after in-line reference cell correction followed by buffer sample subtraction. The dissociation equilibrium constant (KD) was calculated based on the ratio of association and dissociation rated constants, obtained by fitting sensograms with a first order 1:1 binding model using BiaEvaluation Software.

[13] = tested on: rivaroxaban induced FXa inhibition; experiment: Functional neutralization of rivaroxaban in a biochemical Factor Xa activity assay
Procedure: Serial dilutions of test compounds in assay buffer (50 mM HEPES pH 7.8, 250 mM NaCl, 6 mM CaCl2, 0.01% Brij35, 1 mM glutathione, 4 mM EDTA, 0.05% bovine serum albumin) were performed (typical concentrations ranging from 5 μM to 0.0007 μM).
20 μL of the diluted test compounds were placed in 384 well microtiter plates (Greiner, Frickenhausen, Germany), followed by the addition of 10 μL of a 1:400 dilution (250 μM) of the FXa substrate Pefafluor Xa (100 mM in DMSO, Loxo, Dossenheim, Germany) in assay buffer. […] Simultaneously, control reactions without rivaroxaban were started.
During incubation at 32° C., reaction progress curves were monitored using a fluorescence microtiter plate reader (e.g Tecan Ultra Evolution, Tecan Group Ltd., Mannedorf, Switzerland; excitation 360 nm, emission 465 nm).
The dilution of FXa was chosen that in the control reactions the reaction kinetics was linear, and less than 50% of the substrate was consumed (typical final FXa concentration in the assay: 0.05 nM). […] Results are depicted in FIG. 1.

[14] = tested on: dabigatran; experiment: Thrombin generation assay in human platelet poor plasma in the presence of dabigatran; assay type: biochemical; conditions: Fab 0.72 μM, alone or with 0.1 μM rivaroxaban
[15] = tested on: rivaroxaban; experiment: Thrombin generation assay in human platelet poor plasma, reversal of rivaroxaban; assay type: biochemical; conditions: 0.1 μM rivaroxaban; Fab 0, 0.09, 0.72 μM
[16] = tested on: rivaroxaban (FXa activity in plasma); experiment: Reversal of rivaroxaban's effect in a FXa activity assay in plasma; assay type: biochemical, human; conditions: 0.05 μM rivaroxaban; Fab 0-1000 nM
[17] = Affinity determination by Isothermal Titration Calorimetry (ITC); assay type: binding; conditions: read-out: KD for rivaroxaban estimated from the titration curve (ITC); 25° C., PBS pH 7.4
[18] = tested on: SATI; experiment: Thrombin generation assay in human platelet poor plasma, reversal of SATI; assay type: biochemical; conditions: 0.1 μM SATI; Fab 0, 0.09, 0.72 μM

B1: M18-G08-G-DKTHT: non-tagged Fab of variant M18-G08-G; HC SEQ ID NO: 489, LC SEQ ID NO: 490 (antibody, listed as Homo Sapiens)
heavy: EVQLLESGGGLVQPGGSLRLSCAASGFTFSSYWMSWVRQAPGKGLEWVSSISSSSSYIYYADSVKGRFTISRDNSKNTLYLQMNSLRAEDTAVYYCARVWRNYLDYWGQGTLVTVSSASTKGPSVFPLAPSSKSTSGGTAALGCLVKDYFPEPVTVSWNSGALTSGVHTFPAVLQSSGLYSLSSVVTVPSSSLGTQTYICNVNHKPSNTKVDKKVEPKSCDKTHT
light: QSVLTQPPSASGTPGQRVTISCSGSSSNIGSNTVNWYQQLPGTAPKLLIYSNNQRPSGVPDRFSGSKSGTSASLAITGLQAEDEADYYCQSYDSSLSGWVFGGGTKLTVLGQPKAAPSVTLFPPSSEELQANKATLVCLISDFYPGAVTVAWKADSSPVKAGVETTTPSKQSNNKYAASSYLSLTPEQWKSHRSYSCQVTHEGSTVEKTVAPTECS
[1]
  KD Edoxaban: n.b.
[2]
  KD Apixaban: n.b.
[3]
  influence on anticoagulative effect of apixaban in thrombin generation: does not influence the anticoagulative effect of apixaban
[3]; listed as Fab antidote
  influence on anticoagulative effect of apixaban in thrombin generation: No effect on thrombin generation was detectable
[4]
  Kd: ~0.0005 µM and ~0.00048 µM
[5]; anesthetized rats, rivaroxaban 1 mg/kg i.v., Fab 107.5 mg/kg
  cumulative tail bleeding time prolonged by rivaroxaban: significantly shortens the bleeding time prolonged by rivaroxaban to almost normal values
[5]; rivaroxaban 1 mg/kg i.v. plus Fab 107.5 mg/kg 10 minute infusion
  Median bleeding time: 368 s
[6]; 0.4 and 0.8 μM rivaroxaban
  reversal of effect of rivaroxaban on prothrombin time: potently reverse the inhibitory effect of rivaroxaban on PT
[6]; read-out: IC50 M18-G08-G-DKTHT, rivaroxaban 0.4 μM, half-maximal normalization of PT prolongation, mean ± sem, 5 experiments
  IC50: 0.14 ± 0.03 µM
[6]; read-out: IC50 M18-G08-G-DKTHT, rivaroxaban 0.8 μM, half-maximal normalization of PT prolongation, mean ± sem, 5 experiments
  IC50: 0.34 ± 0.17 µM
[7]
  effect of Fab itself on thrombin generation in human plasma: do not modify the thrombogram; also recorded: no effect on thrombin generation
[8]
  Kd: < 0.01 µM
[9]
  PT in rat plasma ex vivo: rapid and sustained normalization of PT values
[10]; 0.17 and 0.33 μM rivaroxaban
  reversal of effect of rivaroxaban on prothrombin time: potently reverse the inhibitory effect of rivaroxaban on PT
[10]; read-out: IC50 M18-G08-G-DKTHT, rivaroxaban 0.17 μM, half-maximal normalization of PT prolongation, mean ± sem, 5 experiments
  IC50: 0.07 ± 0.01 µM
[10]; read-out: IC50 M18-G08-G-DKTHT, rivaroxaban 0.33 μM, half-maximal normalization of PT prolongation, mean ± sem, 5 experiments
  IC50: 0.09 ± 0.02 µM
[11]
  KD Razaxaban: n.b.
[12]; Table 6, analyte rivaroxaban, read-out: KD
  Kd: < 0.01 µM
[12]; read-out: KD Rivaroxaban, Table 7
  Kd: < 0.01 µM
[13]; Table 6, biochemical FXa-assay, 0.05 nM FXa, 0.6 nM rivaroxaban, read-out: EC50
  EC50: < 0.01 µM
[13]; read-out: EC50 for the reversal of rivaroxaban induced FXa inhibition, FXa 0.05 nM, rivaroxaban 0.6 nM (IC75), progress curves 50 min
  EC50: 0.006 µM
[14]
  influence on anticoagulative effect of dabigatran in thrombin generation: does not influence the anticoagulative effect of dabigatran
[14]; listed as Fab antidote
  influence on anticoagulative effect of dabigatran in thrombin generation: No effect on thrombin generation was detectable
[15]
  effect of rivaroxaban on thrombin generation in human plasma: concentration-dependently neutralizes; also recorded: neutralizes concentration-dependently
[16]
  reversal of inhibitory effect of rivaroxaban on FXa activity in human plasma: potently reverse the inhibitory effect of rivaroxaban on FXa
[17]
  Kd: < 0.001 µM
[18]
  effect of SATI on thrombin generation in human plasma: concentration-dependently neutralizes; also recorded: neutralizes concentration-dependently
